Results as given in patent publication US12090125B2, “Combination therapy” (Novartis AG, priority 2019, dated 2024).

How the values were obtained:
[1] = test system: patients with type 2 diabetes; settings: Mean ± Standard Error
[2] = test system: patients with type 2 diabetes; experiment: VERIFY study: time to first adjudicated macrovascular event; settings: in vivo
[3] = test system: patients with type 2 diabetes; experiment: VERIFY study: rate of loss in glycaemic control in fasting plasma glucose (FPG); settings: Mean ± Standard Error
[4] = test system: patients with type 2 diabetes; experiment: VERIFY study: rate of change of insulin sensitivity from baseline to end of study; settings: Mean ± Standard Error
[5] = test system: patients with type 2 diabetes; settings: Mean ± Standard Error; remark: listed apart in the source
[6] = test system: patients with type 2 diabetes; experiment: VERIFY study: time to initial treatment failure (HbA1c at least 53 mmol/mol (7.0%) at two consecutive scheduled visits, period 1); settings: for Time to initial treatment failure: Number (95% Confidence Interval)
[7] = From Week 13 to end of Period 1
[8] = From Week 13 to end of Period 2

CN(C)C(=N)NC(=N)N [Placebo + metformin, N,N-dimethylbiguanide]
Rate of loss of beta cell function from baseline to end of study [1, 7]: −0.53 ± 0.18 Rate (%)
Rate of loss of beta cell function from baseline to end of study [1, 8]: −0.43 ± 0.15 Rate (%)
Rate of loss of beta cell function from baseline to end of study ([1]; From Week 13 to end of study): −0.46 ± 0.05 Rate (%)
absolute cumulative number of recurrent events (macrovascular) [2]: 44
adjudicated first macrovascular events [2]: 33 (3.3%) patients (%)
Rate of loss in glycemic control in Fasting Plasma Glucose (FPG) during Period 1 [3]: 0.26 ± 0.01 Rate (%)
Rate of loss in glycemic control in Fasting Plasma Glucose (FPG) over time during Period 2 [3]: 0.99 ± 0.19 Rate (%)
Rate of change in insulin sensitivity from baseline to end of study [4, 7]: 0.41 ± 1.66 Rate (%)
Rate of change in insulin sensitivity from baseline to end of study [4, 8]: −0.99 ± 1.24 Rate (%)
Rate of change in insulin sensitivity from baseline to end of study ([4]; From Week 13 to end of study): −1.01 ± 1.17 Rate (%)
Rate of loss in glycemic control during Period 1 [5]: 0.27 ± 0.01 Rate (%)
Rate of loss in glycemic control in HbA1c over time during Period 2 [5]: 1.02 ± 0.12 Rate (%)
Time to initial treatment failure ([6]; >Year 5): 74.39 Rate (%)
Time to initial treatment failure ([6]; Weeks 13-52): 19.97 Rate (%)
Time to initial treatment failure ([6]; Year 2): 34.67 Rate (%)
Time to initial treatment failure ([6]; Year 3): 48.21 Rate (%)
Time to initial treatment failure ([6]; Year 4): 59.29 Rate (%)
Time to initial treatment failure ([6]; Year 5): 66.57 Rate (%)
incidence of initial treatment failure during period 1 ([6]; in vivo): 614 (62.1%) patients (%)

Where two headings read alike, the source gives them in different places.
